Test results from PubChem BioAssay (NCI).
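Following 48 hours of exposure in 96-well plates, responses at five concentrations were used to interpolate endpoints linearly. GI50 is the concentration that inhibits growth by half. The concentration for full growth arrest is given as TGI.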

Test system: NCI-H322M lung
Assay: growth of human tumour cells (NCI), 48 h

Structure (SMILES) | GI50 | TGI
C=C(c1ccc(OC)c(N)c1)c1cc(C)nc2ccccc12 | < 0.01 µM | > 100 µM
O=C(Cn1c(-c2ccccc2)nc2ccccc21)N=Nc1c(O)[nH]c2ccc(Br)cc12 | 14.1 µM | 30.5 µM
